The results in this text go back to the antibiotic and cytotoxicity screens of Wong et al. (2023).

Structures are written as SMILES. The list shows a part of the results.

One assay has as its system HSkMC (human skeletal muscle cells). The assay is described as follows: cytotoxicity call (relative viability < 0.9). The note with it: 10 µM.
With `C[C@@H]1CN([C@@H](C)CO)S(=O)(=O)c2ccc(-c3ccncc3)cc2O[C@@H]1CN(C)S(=O)(=O)c1ccccc1F`, the cytotoxicity call was “inactive”.

For the compound `C[C@@H]1CN([C@@H](C)CO)C(=O)CCCn2cc(nn2)CO[C@H]1CN(C)S(=O)(=O)c1ccc2ccccc2c1`, the cytotoxicity call was “inactive”. As to `COc1ccc(S(=O)(=O)Nc2ccc3c(c2)C(=O)N([C@@H](C)CO)C[C@@H](C)[C@H](CN(C)C(=O)c2ccccc2)OCCCC[C@H](C)O3)cc1`, the cytotoxicity call is “inactive”. The same measure, in the same setting: the entry for `COc1ccccc1-c1ccc2c(c1)O[C@@H](CN(C)C(=O)c1cccnc1)[C@H](C)CN([C@H](C)CO)S2(=O)=O` is “inactive”; for `C[C@H]1CN([C@@H](C)CO)C(=O)Cc2cc(NC(=O)Nc3ccccc3)ccc2O[C@H]1CN(C)C(=O)Nc1cccc2ccccc12` it is “inactive”.

Turning to `CO[C@H]1CN(C)C(=O)c2ccc(NC(=O)c3ccccc3)cc2OC[C@@H](C)N(C(=O)CN(C)C)C[C@H]1C`, the cytotoxicity call was “inactive”. The same measure, in the same setting: the entry for `CN1CCN(C(=O)C[C@@H]2C[C@H]3c4cc(NC(=O)c5ccc6c(c5)OCO6)ccc4O[C@H]3[C@H](CO)O2)CC1` is “inactive”. On the same count and under the same terms, the value for `COc1ccccc1S(=O)(=O)N[C@@H]1C=C[C@@H](CC(=O)N2CCN(C)CC2)O[C@@H]1CO` was “inactive”; that for `Cc1ccc(S(=O)(=O)N2C[C@@H](O)COC[C@H]3O[C@@H](CC(=O)NCc4ccc5c(c4)OCO5)CC[C@@H]32)cc1` was “inactive”; that for `C[C@H](CO)N1C[C@H](C)[C@@H](CN(C)Cc2ccc(Cl)c(Cl)c2)OCCCC[C@H](C)Oc2ccc(NS(=O)(=O)c3ccccc3)cc2C1=O` was “inactive”.

The subject of another assay is HepG2. The assay is described as follows: cytotoxicity call (relative viability < 0.9). The note with it: 10 µM.
Turning to `CC1(C)SCN(S(=O)(=O)c2ccccc2)[C@@H]1C(=O)N[C@@H](CNC(=O)NCc1ccccc1)C(=O)O`, the cytotoxicity call is “inactive”. The same measure, in the same setting: the entry for `C[C@@H]1CN([C@H](C)CO)C(=O)Cc2cc(NC(=O)Nc3ccc(F)cc3)ccc2O[C@H]1CN(C)CC1CCCCC1` is “active”; for `COc1ccc(S(=O)(=O)N(C)C[C@H]2OCCCC[C@@H](C)Oc3ccc(NS(=O)(=O)c4ccc(Cl)cc4)cc3C(=O)N([C@H](C)CO)C[C@@H]2C)cc1` it is “inactive”. The same measure, in the same setting: the value for `C[C@@H]1CN([C@@H](C)CO)C(=O)c2cc(NC(=O)Nc3ccccc3)ccc2O[C@@H](C)C/C=C/CO[C@H]1CN(C)S(=O)(=O)c1ccc(F)cc1` was “active”; that for `C[C@H](CO)N1C[C@H](C)[C@@H](CN(C)Cc2ccccc2)OCCCC[C@H](C)Oc2ccc(NC(=O)c3ccccc3)cc2C1=O` was “inactive”; that for `CCCN(C)C[C@@H]1OCCCC[C@@H](C)Oc2ccc(NS(C)(=O)=O)cc2C(=O)N([C@H](C)CO)C[C@H]1C` was “inactive”. Same read-out and setting: the value for `COCC(=O)Nc1ccc2c(c1)C(=O)N(C)[C@@H]1CC[C@H](CC(=O)NCc3ccc(OC)cc3)O[C@@H]1CO2` was “inactive”; that for `C[C@@H]1CN([C@@H](C)CO)C(=O)c2cc(-c3ccc(C(=O)N(C)C)cc3)cnc2O[C@H]1CN(C)C(=O)CN(C)C` was “inactive”.

With `Cc1ccc(S(=O)(=O)N(C)C[C@H]2Oc3ccc(NC(=O)CCCN(C)C)cc3C(=O)N([C@H](C)CO)C[C@@H]2C)cc1`, the cytotoxicity call was “inactive”. Regarding `C[C@@H]1CN([C@H](C)CO)C(=O)Cc2cc(NS(=O)(=O)c3ccc(Cl)cc3)ccc2O[C@@H]1CN(C)C(=O)Nc1cccc2ccccc12`, the cytotoxicity call was “inactive”.

For the compound `COc1ccc(-c2cnc3c(c2)C(=O)N([C@H](C)CO)C[C@H](C)[C@H](CN(C)C(=O)Cc2cccnc2)O3)cc1`, the cytotoxicity call was “inactive”. Still for that read-out and setting: the entry for `C=CCOC(=O)[C@H]1[C@@H]2C(=O)O[C@@H](c3ccccc3)[C@@H](c3ccccc3)N2[C@@H](c2ccc(OCCOC(=O)[C@@H]3C[C@@H]4C(=O)NCC(=O)N4[C@@H]3c3cccc(OCCO)c3)cc2)[C@]12C(=O)Nc1ccc(I)cc12` is “inactive”. Still for that read-out and setting: the entry for `Oc1cc(O)cc(O)c1` is “inactive”; for `CCOC(=O)CC1=NC(=O)CS1` it is “inactive”; for `C[C@H]1CN([C@@H](C)CO)C(=O)c2cccc(NC(=O)CCCCCC(=O)Nc3ccccc3N)c2O[C@H]1CN(C)S(C)(=O)=O` it is “inactive”. Still for that read-out and setting: the value for `C[C@H]1CN([C@@H](C)CO)S(=O)(=O)c2ccc(C#CC3(O)CCCC3)cc2O[C@H]1CN(C)C(=O)Nc1cccc(F)c1` was “inactive”; that for `COc1ccc(S(=O)(=O)N(C)C[C@H]2Oc3ccc(NC(=O)Nc4c(C)noc4C)cc3CC(=O)N([C@@H](C)CO)C[C@H]2C)cc1` was “inactive”. `O=c1[nH]cnc2c1ncn2C1OC(CO)C(O)C1O` (centres undefined): the cytotoxicity call was “inactive”. On the same count and under the same terms, the value for `C[C@@H]1CN([C@H](C)CO)C(=O)c2cc(NC(=O)Cc3cn(C)c4ccccc34)ccc2O[C@@H]1CN(C)C(=O)Nc1ccc(C(F)(F)F)cc1` was “inactive”.
